# Data: the supplement of paper PMC10037445
# Over roughly 2,900 compounds, “NF-kB SEAP reporter activity, fold change vs agonist alone” has its median near 0.99; the highest 2% begin near 2.6. The list shows a part of the results.
# Experiments:
# [1] = test system: RAW-Dual; test: NF-kB SEAP reporter activity, fold change vs agonist alone; cytotoxicity flag (confluency mask): not cytotoxic; higher = enhanced NF-kB activity
# Summary of the method: (§1)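 RAW-Dual macrophages (50,000 cells/well in DMEM, 384-well plates) received 50 nL of library stock by pin tool, then a PRR agonist 1 h later, and were kept at 37 °C, 5% CO2. After 20 hours, supernatant was read for IRF by QuantiLuc luminescence and for NF-κB by QuantiBlue absorbance at 620 nm. Reporter activity is fold change over agonist-alone wells. Cytotoxic wells had IncuCyte confluency below 70% of agonist controls in both mask sets.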
# [2] = test system: RAW-Dual; test: NF-kB SEAP reporter activity, fold change vs agonist alone; higher = enhanced NF-kB activity; settings: library stock concentration (final ~1000-fold dilution): 10 mM
# Summary of the method: as §1
# [3] = test system: RAW-Dual; test: NF-kB SEAP reporter activity, fold change vs agonist alone; cytotoxicity flag (confluency mask): cytotoxic (confluency <70% of control); higher = enhanced NF-kB activity
# Summary of the method: as §1
# [4] = agonist: ODN 1826 (TLR9) 0.5 ug/mL
# [5] = agonist: Pam2CSK4 (TLR2/6) 0.1 ug/mL
# [6] = agonist: Pam3CSK4 (TLR2/1) 0.1 ug/mL
# [7] = cytotoxicity flag (confluency mask): not cytotoxic, agonist: Imiquimod (TLR7) […]
# [8] = cytotoxicity flag (confluency mask): not cytotoxic, agonist: MPLA (TLR4) […]
structure (smiles),measurement,setting,value
O=C(OC(C(F)(F)F)C(F)(F)F)N1CCN(Cc2ccc(C(F)(F)F)cc2N2CCCC2)CC1 (library stock concentration (final ~1000-fold dilution): 10 mM),NF-kB SEAP reporter activity,[1]; agonist: LPS (TLR4) 0.1 ug/mL,0.974
same,NF-kB SEAP reporter activity,[1]; [4],0.861
same,NF-kB SEAP reporter activity,[1]; [5],0.957
same,NF-kB SEAP reporter activity,[1]; [6],0.863
O=C(OC(C(F)(F)F)C(F)(F)F)N1CCN(Cc2ccc(C(F)(F)F)cc2N2CCCC2)CC1,NF-kB SEAP reporter activity,[2]; [7],0.911
same,NF-kB SEAP reporter activity,[2]; [8],1.06
Oc1ccc(-c2nc(-c3ccc(F)cc3)c(-c3ccncc3)[nH]2)cc1,NF-kB SEAP reporter activity,[2]; [7],1.92
same,NF-kB SEAP reporter activity,[2]; [8],1.84
Oc1ccc(-c2nc(-c3ccc(F)cc3)c(-c3ccncc3)[nH]2)cc1 (library stock concentration (final ~1000-fold dilution): 10 mM),NF-kB SEAP reporter activity,[1]; agonist: LPS (TLR4) 0.1 ug/mL,2.59
same,NF-kB SEAP reporter activity,[1]; [4],0.851
same,NF-kB SEAP reporter activity,[1]; [5],1.01
same,NF-kB SEAP reporter activity,[1]; [6],1.2
O=c1n(CCCN2CCN(c3cccc(Cl)c3)CC2)nc2ccccn12 (library stock concentration (final ~1000-fold dilution): 10 mM),NF-kB SEAP reporter activity,[1]; agonist: LPS (TLR4) 0.1 ug/mL,2.72
Cc1ccccc1C(C(=O)NC1CCCCC1)N(C(=O)Cn1ccnc1C)c1cccc(F)c1 (configuration not stated) (library stock concentration (final ~1000-fold dilution): 10 mM),NF-kB SEAP reporter activity,[1]; agonist: LPS (TLR4) 0.1 ug/mL,1.37
same,NF-kB SEAP reporter activity,[1]; [4],1.02
same,NF-kB SEAP reporter activity,[1]; [5],0.953
same,NF-kB SEAP reporter activity,[1]; [6],0.848
Cc1ccccc1C(C(=O)NC1CCCCC1)N(C(=O)Cn1ccnc1C)c1cccc(F)c1 (configuration not stated),NF-kB SEAP reporter activity,[2]; [7],0.967
same,NF-kB SEAP reporter activity,[2]; [8],1.01
CC(C)CN(CC(O)C(Cc1ccccc1)NC(=O)OC1CCOC1)S(=O)(=O)c1ccc(N)cc1 (configuration not stated) (library stock concentration (final ~1000-fold dilution): 10 mM),NF-kB SEAP reporter activity,[1]; agonist: LPS (TLR4) 0.1 ug/mL,1.41
same,NF-kB SEAP reporter activity,[1]; [4],1.74
same,NF-kB SEAP reporter activity,[1]; [5],1.45
same,NF-kB SEAP reporter activity,[1]; [6],1.32
CC(C)CN(CC(O)C(Cc1ccccc1)NC(=O)OC1CCOC1)S(=O)(=O)c1ccc(N)cc1 (configuration not stated),NF-kB SEAP reporter activity,[2]; [7],1.3
same,NF-kB SEAP reporter activity,[2]; [8],1.6
CC1COC(Nc2ccc3ncnc(Nc4ccc(OCc5nccs5)c(Cl)c4)c3c2)=N1 (configuration not stated),NF-kB SEAP reporter activity,[2]; [7],1.28
same,NF-kB SEAP reporter activity,[2]; [8],1.03
CC1COC(Nc2ccc3ncnc(Nc4ccc(OCc5nccs5)c(Cl)c4)c3c2)=N1 (configuration not stated) (library stock concentration (final ~1000-fold dilution): 10 mM),NF-kB SEAP reporter activity,[1]; agonist: LPS (TLR4) 0.1 ug/mL,0.991
same,NF-kB SEAP reporter activity,[1]; [4],0.507
same,NF-kB SEAP reporter activity,[1]; [5],0.602
same,NF-kB SEAP reporter activity,[1]; [6],0.911
C[C@@H]1O[C@@H](O[C@H]2[C@H](OC(=O)[C@]34CCC(C)(C)C[C@H]3C3=CC[C@@H]5[C@@]6(C)C[C@H](O)[C@H](O[C@@H]7O[C@H](CO)[C@@H](O)[C@H](O)[C@H]7O)[C@@](C)(CO)[C@@H]6CC[C@@]5(C)[C@]3(C)CC4)O[C@H](CO)[C@@H](O)[C@@H]2O)[C@H](O)[C@H](O)[C@H]1O[C@@H]1OC[C@@H](O)[C@H](O)[C@H]1O,NF-kB SEAP reporter activity,[2]; [7],0.83
same,NF-kB SEAP reporter activity,[2]; [8],1.01
C[C@@H]1O[C@@H](O[C@H]2[C@H](OC(=O)[C@]34CCC(C)(C)C[C@H]3C3=CC[C@@H]5[C@@]6(C)C[C@H](O)[C@H](O[C@@H]7O[C@H](CO)[C@@H](O)[C@H](O)[C@H]7O)[C@@](C)(CO)[C@@H]6CC[C@@]5(C)[C@]3(C)CC4)O[C@H](CO)[C@@H](O)[C@@H]2O)[C@H](O)[C@H](O)[C@H]1O[C@@H]1OC[C@@H](O)[C@H](O)[C@H]1O (library stock concentration (final ~1000-fold dilution): 10 mM),NF-kB SEAP reporter activity,[1]; agonist: LPS (TLR4) 0.1 ug/mL,1.11
same,NF-kB SEAP reporter activity,[1]; [4],0.984
same,NF-kB SEAP reporter activity,[1]; [5],1.04
same,NF-kB SEAP reporter activity,[1]; [6],1.19
COc1cc2c(cc1OC(C)C)C(c1ccc(Cl)cc1)N(c1ccc(N(C)CC3CCC(N4CCN(C)C(=O)C4)CC3)cc1)C(=O)C2 (configuration not stated),NF-kB SEAP reporter activity,[2]; [7],0.648
same,NF-kB SEAP reporter activity,[2]; [8],0.853
COc1cc2c(cc1OC(C)C)C(c1ccc(Cl)cc1)N(c1ccc(N(C)CC3CCC(N4CCN(C)C(=O)C4)CC3)cc1)C(=O)C2 (configuration not stated) (library stock concentration (final ~1000-fold dilution): 10 mM),NF-kB SEAP reporter activity,[1]; agonist: LPS (TLR4) 0.1 ug/mL,0.702
same,NF-kB SEAP reporter activity,[1]; [4],0.529
same,NF-kB SEAP reporter activity,[1]; [5],0.211
same,NF-kB SEAP reporter activity,[1]; [6],0.373
COc1cc2ncnc(Nc3cccc(Cl)c3)c2cc1OC (library stock concentration (final ~1000-fold dilution): 10 mM),NF-kB SEAP reporter activity,[3]; agonist: LPS (TLR4) 0.1 ug/mL,1.59
same,NF-kB SEAP reporter activity,[3]; [4],0.692
same,NF-kB SEAP reporter activity,[3]; [5],0.764
same,NF-kB SEAP reporter activity,[3]; [6],1.02
COc1cc2ncnc(Nc3cccc(Cl)c3)c2cc1OC,NF-kB SEAP reporter activity,"[2]; cytotoxicity flag (confluency mask): cytotoxic (confluency <70% of control), agonist: Imiquimod (TLR7) […]",1.58
same,NF-kB SEAP reporter activity,"[2]; cytotoxicity flag (confluency mask): cytotoxic (confluency <70% of control), agonist: MPLA (TLR4) […]",1.42
O=c1oc2cc(O)ccc2s1,NF-kB SEAP reporter activity,[2]; [7],0.953
same,NF-kB SEAP reporter activity,[2]; [8],1.05
O=c1oc2cc(O)ccc2s1 (library stock concentration (final ~1000-fold dilution): 10 mM),NF-kB SEAP reporter activity,[1]; agonist: LPS (TLR4) 0.1 ug/mL,0.896
same,NF-kB SEAP reporter activity,[1]; [4],1
same,NF-kB SEAP reporter activity,[1]; [5],1.36
same,NF-kB SEAP reporter activity,[1]; [6],0.983
O=C(O)c1ccccc1O (library stock concentration (final ~1000-fold dilution): 10 mM),NF-kB SEAP reporter activity,[1]; agonist: LPS (TLR4) 0.1 ug/mL,1.08
same,NF-kB SEAP reporter activity,[1]; [4],0.992
same,NF-kB SEAP reporter activity,[1]; [5],0.923
same,NF-kB SEAP reporter activity,[1]; [6],1.11
O=C(O)c1ccccc1O,NF-kB SEAP reporter activity,[2]; [7],0.851
same,NF-kB SEAP reporter activity,[2]; [8],0.999
CCOc1ccc2nc(S(N)(=O)=O)sc2c1 (library stock concentration (final ~1000-fold dilution): 10 mM),NF-kB SEAP reporter activity,[1]; agonist: LPS (TLR4) 0.1 ug/mL,1.12
same,NF-kB SEAP reporter activity,[1]; [4],0.784
same,NF-kB SEAP reporter activity,[1]; [5],1.03
same,NF-kB SEAP reporter activity,[1]; [6],1.03
CCOc1ccc2nc(S(N)(=O)=O)sc2c1,NF-kB SEAP reporter activity,[2]; [7],0.885
same,NF-kB SEAP reporter activity,[2]; [8],0.966
COC(=O)c1ccc(O)c(OC)c1,NF-kB SEAP reporter activity,[2]; [7],1.34
same,NF-kB SEAP reporter activity,[2]; [8],1.11
COC(=O)c1ccc(O)c(OC)c1 (library stock concentration (final ~1000-fold dilution): 10 mM),NF-kB SEAP reporter activity,[1]; agonist: LPS (TLR4) 0.1 ug/mL,1.37
same,NF-kB SEAP reporter activity,[1]; [4],1.19
same,NF-kB SEAP reporter activity,[1]; [5],1.22
same,NF-kB SEAP reporter activity,[1]; [6],1.02
CS(=O)(=O)c1ccc(-c2nnc(/C=C/c3nnc(-c4ccc(C#N)cc4)o3)n2-c2ccccc2Cl)nc1 (library stock concentration (final ~1000-fold dilution): 10 mM),NF-kB SEAP reporter activity,[1]; agonist: LPS (TLR4) 0.1 ug/mL,0.757
same,NF-kB SEAP reporter activity,[1]; [4],0.833
same,NF-kB SEAP reporter activity,[1]; [5],0.999
same,NF-kB SEAP reporter activity,[1]; [6],1.66
